# ± gives the standard deviation of the averaged measurements. Some of the results follow.
# System: PfAP2-LT AP2 domain (GST-tagged)
# Test: gcPBM binding intensity (ln(normalized median fluorescence intensity)); higher = stronger DNA binding
# Procedure, shortened: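 For binding intensity, the highest Masliner-normalised natural-log median intensity across replicate spots of either probe orientation was taken. Protein bound to the array was stained with Alexa488 anti-GST antibody and scanned at 488 nm. The protein, GST-tagged P. falciparum DNA-binding domains from E. coli at about 25 μg on average, had been applied for 1 h to an Agilent 4 × 180k array of primer-extended double-stranded 36-bp intergenic genomic probes and negative controls.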
row,Sequence,gcPBM binding intensity (ln)
1,ATTTTATAATTTATATCACACACATATATATATAGT [CACACA_site7885],9.28 ± 0.4
2,TGTCCCCCTTTCTATGCACACTTTAAATTATTCAAA [CACACA_site4200],9.07 ± 0.22
3,AAAAAAAAAATACATACACACACACCCACCCATATA [CACACA_site9187],10.18 ± 0.021
4,ATTAATCCAAATGAATGTACTTAATAATGTAATTAT [XGTACX_site8946],8.62 ± 0.42
5,TTATATATAAATGAAAGTACAAAACAGGAAAGAATA [XGTACX_site1076],8.96 ± 0.47
6,AATGATATATTATAAACACACAAAGATGGATATATA [CACACA_site7349],8.95 ± 0.48
7,AATACACGCAAACACACACACACACCCACATATATA [CACACA_site638],10.3 ± 0.14
8,ATATATAATATATGTGGTACGCAAAATATTATATTA [XGTACX_site4969],8.96 ± 0.38
9,TTTATATTATAATATAATAATGATCTTAATTTTTTT [XGTACX_negctrl_site100],8.27 ± 0.55
10,TCAATATACCAAAAATGTACAAAAAATAAACAATAT [XGTACX_site8251],9.03 ± 0.43
11,GAACATTTCACATGGTGTACTCTCTTTTTCAAATAA [XGTACX_site1632],8.63 ± 0.42
12,TTTATTTTACAAAAAAGTACAAGAAGAAATATCAAT [XGTACX_site7812],8.49 ± 0.38
13,ATATTTAGAATGTTCCTACACACCAAATTTAAGTGG [CACACA_site2346],8.89 ± 0.47
14,TATTAAAAGTAAAAAACACACATGGATAAATACATA [CACACA_site6048],9.01 ± 0.53
15,TATTCGAAAGAATAGGCATGCAAACATATCTTATTA [TGCATGCA_site147],9.1 ± 0.61
16,TATTATTTATTATATGCACACATCGAACTATTATTT [CACACA_site2544],9.2 ± 0.4
17,TTCTATATTATATATGCATGTGTTATTCTTATTTTC [TGCATGCA_site92],9.07 ± 0.57
18,ATATAATATTAGTGCACACACAAAAATGTACTAAAC [CACACA_site632],9.33 ± 0.31
19,AAACATATAAATCACGGTACACATTATTGAAAGTGT [XGTACX_site2966],9.11 ± 0.47
20,ATAAAGAAACATATATGTACTTATATATATATATAT [XGTACX_site5625],9.15 ± 0.3
21,ATATATATTATATGCACACTTATATTTCATTAGATT [CACACA_site2599],8.95 ± 0.38
22,ATTGTATCTGTATATGCACACAATATCTGTACTTCT [CACACA_site5445],9.38 ± 0.39

row,Sequence,gcPBM binding intensity (ln)
1,TCATCATATTATATATGTACATATATAATAATTTAT [XGTACX_site1625],8.62 ± 0.42
2,AAATAATTAAAAAAAAGTACACATGTGACTACATAT [XGTACX_site8767],8.93 ± 0.35
3,TTATAATTTTTTTTTGCATGTGGGTTTTTTTTTGTT [TGCATGCA_site968],8.96 ± 0.38
4,TATATATATGTATACACACATACAAATATGTAAAAA [CACACA_site3720],9.02 ± 0.39
5,AAATAAAGCACACCGACACACACATATATATATATA [CACACA_site8256],10.03 ± 0.057
6,TTTCAATACTGAAACTGTACTTGTTTTACTTCTATT [XGTACX_site5924],8.92 ± 0.58
7,CGAAATCATATGTACACACACATATATATATATATA [CACACA_site2151],10.1 ± 0.18
8,ATAATTCTAAATAAATGTACACACAAAAATAAATGT [XGTACX_site3547],9.07 ± 0.4
9,GTTAATTGAAGATTCACACATAAATATATATATAAT [CACACA_site5482],8.7 ± 0.38
10,TAACGCATGAATATAATATATATATATATAAAAATA [GTGCAC_negctrl_site218],8.89 ± 0.47
11,ATTGTATGCACGTCTGCACACTTTTTTTTTTTTTTT [CACACA_site2082],8.94 ± 0.51
12,TATAGATGTATGTACATACACACATATATAAATAAA [CACACA_site1789],9.14 ± 0.39
13,TGTTAATTTATATTATGTACTTATAATTATCGTTTG [XGTACX_site1032],8.93 ± 0.41
14,TACACCCACCAACACACACACACACCCAAAAAAAAA [CACACA_site498],10.1 ± 0.14
15,AACTTTATACTTTTTTGTACTTAACCCTTACATTTT [XGTACX_site5798],9.12 ± 0.42
16,TTTATGAAACAGTGCACACATAAAAATATATACATA [CACACA_site2992],9.09 ± 0.4
17,TTTATATATTTATTCACACATATAATATTCCGTCGT [CACACA_site6120],8.99 ± 0.45
18,GTAAGATTTCTTGTTGCATGCGGTAAAAAGTAAAAT [TGCATGCA_site469],8.87 ± 0.38
19,TAGATAAATGGGTATACACACATATACATAAATATA [CACACA_site375],9.01 ± 0.46
20,AAAAAGAAATATTTATGTACATAATAATAATATTTT [XGTACX_site4693],8.63 ± 0.44
21,AATATAGATACATATACACACACACCCATACATATA [CACACA_site9137],9.98 ± 0.24
22,CAATTAAATATATGAACACACATGTGAACTTTCTAT [CACACA_site3977],9.06 ± 0.35
